Assay in all cases: uncleaved DNA left, log2 of reads against the no-enzyme library (log2 ratio); higher = less cleavage (more negative = more Rep cleavage of the k-mer); sequences stand for … in CTCGTCCG…ACCGGAGA
For test [1], the system named is T1, Rep nickase domain of Muscovy duck circovirus.
T1 sequence (residues 1-111, tag not shown): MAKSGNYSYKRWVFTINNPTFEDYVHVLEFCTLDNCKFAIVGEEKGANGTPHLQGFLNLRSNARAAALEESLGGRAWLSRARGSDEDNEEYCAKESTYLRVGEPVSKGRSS
The method, then:
(§1)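 A pool of 90-nt single-stranded DNAs with seven random bases just before the constant AC of the nick site (name = the seven bases) was cut by 3 µM recombinant His6-SUMO-tagged Rep nickase domain (300 nM DNA, 50 mM HEPES pH 8.0, 50 mM NaCl, 1 mM MnCl2, 1 h, 37 °C, three replicates). Uncut DNA was amplified and sequenced.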

Test [2] deals with T2, Rep nickase domain of banana bunchy top virus.
T2 sequence (residues 1-94, tag not shown): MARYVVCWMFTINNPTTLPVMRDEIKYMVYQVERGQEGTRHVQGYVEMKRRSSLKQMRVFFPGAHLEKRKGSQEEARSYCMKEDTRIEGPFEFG
The method, then:
as §1

For test [3], the system named is T3, Rep nickase domain of cabbage leaf curl virus.
T3 sequence (residues 1-116, tag not shown): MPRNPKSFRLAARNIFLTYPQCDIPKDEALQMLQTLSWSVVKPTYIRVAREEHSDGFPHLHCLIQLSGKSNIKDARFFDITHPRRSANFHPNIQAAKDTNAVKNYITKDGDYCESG
The method, then:
as §1

Test [4] deals with T4, Rep nickase domain of chickpea chlorotic dwarf virus.
T4 sequence (residues 1-124, tag not shown): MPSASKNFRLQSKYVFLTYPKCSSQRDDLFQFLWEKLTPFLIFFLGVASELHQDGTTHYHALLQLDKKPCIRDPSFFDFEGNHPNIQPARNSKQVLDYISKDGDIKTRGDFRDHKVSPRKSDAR
The method, then: as §1
Test [5] deals with T5, Rep nickase domain of faba bean necrotic yellows virus.
T5 sequence (residues 1-98, tag not shown): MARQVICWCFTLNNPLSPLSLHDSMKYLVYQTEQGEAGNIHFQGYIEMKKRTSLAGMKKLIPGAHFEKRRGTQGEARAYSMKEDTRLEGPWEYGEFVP
The method, then: as §1
Test [6] deals with T6, Rep nickase domain of maize striate mosaic virus.
T6 sequence (residues 1-117, tag not shown): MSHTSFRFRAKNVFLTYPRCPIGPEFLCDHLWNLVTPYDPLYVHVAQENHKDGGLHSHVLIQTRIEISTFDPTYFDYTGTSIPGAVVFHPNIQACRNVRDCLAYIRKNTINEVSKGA
The method, then: as §1
Test [7] has as its system T7, Rep nickase domain of porcine circovirus 2.
T7 sequence (residues 2-116, tag not shown): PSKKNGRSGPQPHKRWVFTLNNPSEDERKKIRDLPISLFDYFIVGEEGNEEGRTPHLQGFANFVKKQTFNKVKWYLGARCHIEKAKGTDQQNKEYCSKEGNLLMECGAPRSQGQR
The method, then: as §1
Test [8] deals with T8, Rep nickase domain of tomato yellow leaf curl virus.
T8 sequence (residues 1-136, tag not shown): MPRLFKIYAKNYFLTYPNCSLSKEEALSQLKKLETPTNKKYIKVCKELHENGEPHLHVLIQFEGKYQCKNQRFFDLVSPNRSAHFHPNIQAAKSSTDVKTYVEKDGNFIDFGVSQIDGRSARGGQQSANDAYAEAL
The method, then:
as §1

Test [9] deals with T9, Rep nickase domain of wheat dwarf virus.
T9 sequence (residues 1-137, tag not shown): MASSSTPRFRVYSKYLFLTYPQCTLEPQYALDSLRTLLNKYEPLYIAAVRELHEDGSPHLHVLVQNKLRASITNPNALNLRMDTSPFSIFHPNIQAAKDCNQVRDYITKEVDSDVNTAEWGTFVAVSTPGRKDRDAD
The method, then: as §1

This is one part of the list. One pool of 16,384 single-stranded DNAs met each Rep nickase domain in vitro at 3 µM enzyme and 37 °C for 1 h; the strands have 90 letters, of which the middle is given. Values are log2 of uncut reads against the no-enzyme pool; the lower, the more was cut; hits are not called. Counts are relative to all reads, so uncut sequences can rise above 0 when many others are cut.

For the sequence CAAAACT, the “uncleaved DNA left (log2)” value in test [1] is 0.00501; in test [2] it was 0.00456; in test [3], -3.01; in test [4], -3.49; in test [5], 0.0353; in test [6] it was -1.43. In addition, the “uncleaved DNA left (log2)” value is -1.07 in test [7], 0.0869 in [8] and -1.32 in test [9].
Regarding TTTTGCG, the “uncleaved DNA left (log2)” value was -0.135 in test [1]; -0.137 in [2]; 0.0626 in [3]; 0.975 in [4]; -0.000292 in test [5]; 1.3 in [6]. For the same sequence, the “uncleaved DNA left (log2)” value in [7] is -0.0539; in [8] it was -0.364; in [9], -0.0995.
Regarding AGGCGGG, the “uncleaved DNA left (log2)” value in [1] was 0.0916; in test [2], 0.0625; in test [3], -0.0868; in test [4], 0.101; in test [5], 0.089; in test [6], -0.279. Besides, the “uncleaved DNA left (log2)” value in [7] was 0.286; in test [8] it was 0.0453; in test [9], -0.00298.
For ACTGTGG, the “uncleaved DNA left (log2)” value in [1] was 0.0214; in [2] it was 0.0379; in test [3], -0.6; in test [4] it was -0.472; in test [5], 0.0191; in [6], -1.11. Further, the “uncleaved DNA left (log2)” value in [7] was 0.11; in test [8] it was 0.159; in [9], -0.138.
Take TTTACAT: the “uncleaved DNA left (log2)” value was 0.131 in [1]; 0.134 in test [2]; 0.437 in test [3]; -0.745 in test [4]; 0.0947 in [5]; 0.891 in test [6]. The “uncleaved DNA left (log2)” value in test [7] is 0.00791; in [8], 0.22; in [9], 0.161.
Turning to AAAATGA, the “uncleaved DNA left (log2)” value in test [1] was 0.0371; in test [2], -0.0293; in test [3] it was -0.0646; in [4] it was -0.332; in test [5], 0.0268; in test [6] it was -0.873. Moreover, the “uncleaved DNA left (log2)” value in [7] worked out at 0.141; in test [8], 0.00449; in test [9], 0.0182.
Take CTACGAT: the “uncleaved DNA left (log2)” value is 0.067 in test [1]; -0.0531 in test [2]; -0.0295 in [3]; -1.42 in test [4]; -0.00398 in test [5]; 0.252 in test [6]. Further, the “uncleaved DNA left (log2)” value in test [7] was 0.0805; in test [8] it was -0.00197; in [9] it was -0.0824.
On to TATACGA, for which the “uncleaved DNA left (log2)” value in test [1] was 0.0494; in [2], 0.0111; in test [3], 0.111; in [4], -0.528; in [5], 0.00136; in test [6], -0.562. Further, the “uncleaved DNA left (log2)” value in test [7] is 0.124; in test [8], 0.0457; in test [9] it was -0.0235.
Take CATACGT: the “uncleaved DNA left (log2)” value in test [1] is 0.0844; in test [2] it was -0.117; in test [3] it was 0.164; in test [4] it was -0.535; in test [5] it was 0.0956; in test [6], -0.496. Further, the “uncleaved DNA left (log2)” value was 0.01 in [7], -0.0532 in test [8] and -0.0957 in test [9].
With GCATCTC, the “uncleaved DNA left (log2)” value in test [1] is -0.0639; in [2], 0.00652; in [3], -0.23; in test [4], 0.0164; in test [5], -0.071; in test [6] it was 0.00203. Further, the “uncleaved DNA left (log2)” value in test [7] was -0.0258; in test [8], -0.0973; in test [9], -0.0871.
Take ATTCAAA: the “uncleaved DNA left (log2)” value in test [1] was 0.088; in test [2], 0.286; in [3] it was 0.272; in test [4], 0.182; in test [5] it was 0.0934; in test [6], -0.34. Further, the “uncleaved DNA left (log2)” value in test [7] stood at 0.171; in test [8], 0.0895; in [9], 0.18.
Take TCCCGGA: the “uncleaved DNA left (log2)” value in [1] is -0.0932; in test [2] it was -0.112; in [3] it was 0.198; in test [4], 0.372; in test [5], -0.0385; in test [6] it was 0.114. The “uncleaved DNA left (log2)” value is -0.00574 in [7], -0.115 in test [8] and -0.0728 in [9].
For the sequence ATAAGTT, the “uncleaved DNA left (log2)” value in test [1] is -0.0296; in [2], -0.0621; in test [3], -3.3; in [4], -3.25; in test [5], -0.021; in test [6] it was -1.56. The “uncleaved DNA left (log2)” value was -0.2 in [7], -0.28 in test [8] and -1.86 in test [9].
Take GCTATCT: the “uncleaved DNA left (log2)” value is 0.0287 in test [1]; 0.176 in [2]; 0.11 in test [3]; -0.793 in test [4]; -0.00198 in [5]; 0.00509 in [6]. The “uncleaved DNA left (log2)” value in test [7] is -0.167; in test [8] it was 0.0951; in test [9], 0.0888.
Turning to TGCCAGT, the “uncleaved DNA left (log2)” value in [1] is -0.0254; in test [2] it was 0.122; in [3] it was -0.171; in test [4], -0.573; in test [5], 0.115; in test [6], -0.731. Further, the “uncleaved DNA left (log2)” value is -0.146 in [7], 0.103 in test [8] and -0.000743 in test [9].
